The text below walks through data of paper PMC10668032.

This is one part of the list. At the low end of the ranking the order means little.

The test has as its target SIX1-Q177R homeodomain (UniProt Q15475). Put plainly: universal protein binding microarray. Particulars: Universal all-10-mer PBM (8x60K, AMADID 030236), 300 nM GST-tagged protein, Alexa Fluor 488 anti-GST; buffer, salt, pH and temperature not stated; high values mean tight binding; most listed sequences are background and not binding sites; double strand, one strand shown.
Regarding AAACGATT, the binding signal is -0.164 E-score.
In the case of ATATCCGC, the binding signal was 0.00412 E-score.
With CATTAGTA, the binding signal came to 0.00877 E-score.
Consider GAAACAAC, for which the binding signal is -0.0101 E-score.
The result for AAACGGCG reads -0.116 E-score.
Regarding CAGTCAGG, the binding signal was -0.0544 E-score.
The result for CAAACCCG reads -0.0675 E-score; that for GTCGGCCA, -0.0402 E-score.
In the case of GAGGAAGC it was -0.205 E-score; in that of GCCTTGAC, -0.0969 E-score; in that of ATTTGTTG, 0.00624 E-score.
The result for AGTCGTTA reads -0.112 E-score; that for AATTAAAT, -0.247 E-score.
With AAATGCGA, the binding signal is -0.064 E-score.
In the case of CCGGGGCG it was 0.0986 E-score; in that of AGGCGCCG, 0.00941 E-score; in that of GATAGTGC, 0.0101 E-score.
With ACGACCAT, the binding signal was -0.137 E-score.
As to CGCTCCTC, the binding signal was -0.0867 E-score.
In the case of CCTAAGCC, the binding signal is -0.0982 E-score.
For AAACAGTT, the binding signal is -0.264 E-score.
For the sequence TCGTAGCA, the binding signal was -0.0231 E-score.
As to CAGTCAAC, the binding signal is -0.0652 E-score.
The result for CACAGCCA reads 0.0567 E-score.
Take AGAGGGGC: the binding signal is -0.113 E-score.
Consider ACACGCAA, for which the binding signal was determined as 0.395 E-score.
The result for ACTAATAG reads -0.05 E-score; that for GCTCCAAC, -0.215 E-score; that for GCAGGGGC, -0.119 E-score.
In the case of AACAAGAT it was -0.0301 E-score.
In the case of ACAATATA it was -0.0578 E-score; in that of ACTATACA, 0.238 E-score; in that of AAACTATA, -0.058 E-score.
Regarding ATGAGAAT, the binding signal is -0.0487 E-score.
On to ACGGGGTA, for which the binding signal came out at 0.233 E-score.
Turning to ATTGGTGG, the binding signal was -0.111 E-score.
For GCGCGCTA, the binding signal is -0.016 E-score.
In the case of ATGCGCCC it was -0.0422 E-score.
In the case of CGGAAGAG it was -0.0407 E-score; in that of AGTGGTAA, -0.269 E-score.
In the case of GGATAGTA it was 0.121 E-score; in that of CCGAAGAA, -0.0497 E-score.
For the sequence ACGAGCGG, the binding signal is 0.116 E-score.
The result for AAGTTACA reads 0.171 E-score; that for AAAGACTG, -0.156 E-score; that for ACAGGGGG, 0.0825 E-score.
The result for CGCCTGAG reads -0.128 E-score; that for ACACACGA, 0.251 E-score.
In the case of CCCGCTCC it was 0.0597 E-score.
For the sequence CCAGGAGG, the binding signal was -0.113 E-score.
In the case of AAATAGAT it was -0.146 E-score.
In the case of TGGTAACA it was 0.0425 E-score; in that of AGATCGAA, -0.31 E-score.
In the case of AAGGCAAA it was -0.0842 E-score; in that of CTCCCCAC, -0.00611 E-score.
As for CATATTCC, the binding signal was -0.192 E-score.
In the case of AACCACAT it was -0.0467 E-score.
As to CAACACCA, the binding signal was determined as 0.474 E-score.
The result for CCACCCGC reads 0.146 E-score; that for ACTAGGAG, 0.219 E-score; that for CTAGCCGC, -0.162 E-score.
The result for CAAAGAAG reads -0.068 E-score.
In the case of GCGGGTAA it was 0.164 E-score; in that of GTAACGCA, -0.0317 E-score; in that of ATACTATG, -0.0326 E-score.
As to GAGTAGAA, the binding signal was 0.0107 E-score.
The result for GGTCGCCA reads -0.217 E-score.
The result for CCGCGTCA reads 0.156 E-score; that for AACGTTGG, -0.118 E-score.
In the case of GTACTCCA it was 0.178 E-score.
For GCATACAA, the binding signal was -0.0449 E-score.
In the case of ATCAAGTG, the binding signal came to 0.151 E-score.
For the sequence ACCATTTC, the binding signal is -0.049 E-score.
The result for AATGAGGG reads 0.0404 E-score.
ACACCCAG: the binding signal is 0.46 E-score.
The result for CTGTTTTC reads -0.193 E-score; that for ATTGCTAA, -0.211 E-score; that for CCAAGGAG, -0.0441 E-score.
As to GCTAAGAC, the binding signal was -0.0312 E-score.
In the case of ATCCTATA it was -0.137 E-score; in that of AGAGCTCC, -0.206 E-score; in that of ACGGGTAT, 0.277 E-score.
Turning to CTGAGAGA, the binding signal came to 0.108 E-score.
In the case of GGACAACC it was -0.146 E-score.
In the case of ACCTGGCT it was -0.0981 E-score.
For AGAAAGAG, the binding signal turned out to be 0.108 E-score.
The result for CACCGGGC reads 0.262 E-score; that for CGCGGAAG, -0.112 E-score; that for CACTACGA, 0.191 E-score.
With GGAGAGAC, the binding signal was -0.106 E-score.
With ACACTAGG, the binding signal came to 0.381 E-score.
The result for ATGGAGAC reads 0.174 E-score; that for GAACCTCA, -0.124 E-score.
In the case of AACCATGA it was 0.00619 E-score; in that of CCTTGCGA, 0.0371 E-score.
In the case of CAACCTCC it was -0.109 E-score.
On to CTGGTCGA, for which the binding signal is -0.16 E-score.
For ACATACGT, the binding signal was -0.172 E-score.
Turning to AGTACGTC, the binding signal is -0.0402 E-score.
In the case of ATGGAGTG it was 0.274 E-score.
The result for TAGAACAA reads -0.128 E-score.
As to GCGTGTGA, the binding signal came to 0.347 E-score.
Regarding ACTTGTAC, the binding signal amounted to 0.129 E-score.
In the case of CAACAATA it was -0.111 E-score; in that of CATCTAGG, -0.1 E-score.
Turning to AAGGTCCA, the binding signal is -0.247 E-score.
Regarding AAGCATTG, the binding signal is -0.076 E-score.
Regarding CGATCCCC, the binding signal was determined as 0.303 E-score.
The result for GGGTGAAC reads 0.0894 E-score.
